Measurements reported in the supplement of paper PMC3334620.
In all, about 33,000 sequences were measured (“E-score (-0.5 to 0.5)”: median about -0.043, highest 2% from about 0.37 on). The list shows a part of the results.

The sequences below were run against T1, Upc2 (UniProt Q12151) (assay: PBM E-score (8-mer binding enrichment) (E-score (-0.5 to 0.5)); higher = stronger / more preferred TF binding; most listed sequences are background and not binding sites). Details: protein concentration: 200 nM; construct: GST-full length.
T1 sequence: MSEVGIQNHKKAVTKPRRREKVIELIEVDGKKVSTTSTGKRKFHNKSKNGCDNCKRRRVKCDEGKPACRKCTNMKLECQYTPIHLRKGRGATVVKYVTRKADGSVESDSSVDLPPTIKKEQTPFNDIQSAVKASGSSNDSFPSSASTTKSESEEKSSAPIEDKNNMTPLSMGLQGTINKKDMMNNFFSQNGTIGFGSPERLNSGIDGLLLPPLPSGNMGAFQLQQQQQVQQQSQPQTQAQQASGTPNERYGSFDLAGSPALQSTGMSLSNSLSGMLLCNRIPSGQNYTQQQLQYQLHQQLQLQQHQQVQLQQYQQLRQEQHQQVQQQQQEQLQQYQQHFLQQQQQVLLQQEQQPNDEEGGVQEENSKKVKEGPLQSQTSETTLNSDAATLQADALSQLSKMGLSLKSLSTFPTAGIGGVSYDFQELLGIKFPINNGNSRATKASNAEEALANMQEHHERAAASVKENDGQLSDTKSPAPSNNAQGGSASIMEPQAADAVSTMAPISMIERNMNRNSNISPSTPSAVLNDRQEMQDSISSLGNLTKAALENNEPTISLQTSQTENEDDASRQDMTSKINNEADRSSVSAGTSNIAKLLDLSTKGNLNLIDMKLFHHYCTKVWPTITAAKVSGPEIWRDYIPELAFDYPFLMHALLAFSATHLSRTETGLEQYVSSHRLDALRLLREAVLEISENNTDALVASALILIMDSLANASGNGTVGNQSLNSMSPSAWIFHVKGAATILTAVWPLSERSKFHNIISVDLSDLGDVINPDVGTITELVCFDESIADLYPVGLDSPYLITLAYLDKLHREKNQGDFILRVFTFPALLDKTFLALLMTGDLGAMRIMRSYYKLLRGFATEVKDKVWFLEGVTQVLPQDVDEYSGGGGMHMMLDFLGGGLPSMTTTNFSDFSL
In short: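 Full-length yeast transcription factors or their DNA-binding domains, GST-tagged and expressed with PURExpress, were applied at about 100-200 nM to universal all-10-mer Agilent arrays. These arrays had been made double-stranded by primer extension on fresh or once-stripped slides. Detection used fluorescent anti-GST, normalisation used masliner, and E-scores for ungapped eight-base words pooled with reverse complements came from the Universal PBM Analysis Suite.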

| Sequence | PBM E-score |
| --- | --- |
| AGGATAGC | 0.199 |
| ACCGTCTG | -0.109 |
| AACAGAAC | -0.0133 |
| CACCTTAC | -0.0573 |
| AGGCTCTG | -0.193 |
| TAGAAGGA | -0.154 |
| CGCCATCA | -0.224 |
| GGGGTGTA | -0.104 |
| CGGGTTAA | 0.208 |
| AGCACCTA | -0.14 |
| CATGACGG | -0.229 |
| ATAGGTGC | 0.0421 |
| TCGTAGAA | 0.39 |
| CATTACAG | 0.0141 |
| AGGCATAG | -0.279 |
| CCCCGGCA | -0.259 |
| CGAGATAA | 0.216 |
| ATGGAATG | -0.113 |
| ACTGTATC | 0.0883 |
| AACGCACC | 0.12 |
| AAAAGGGG | -0.144 |
| GGAAATAA | 0.0184 |
| ATCTTCGC | 0.151 |
| ATACAGTC | -0.0278 |
| CGTTGAGA | 0.108 |

| Sequence | PBM E-score |
| --- | --- |
| AGGCTTTC | -0.0495 |
| ACAACTTG | -0.203 |
| CCTAATGA | -0.148 |
| ACTATTGG | -0.285 |
| CTATGTCA | -0.221 |
| ACCCTTGC | -0.165 |
| ACACCACA | -0.0645 |
| ACGGCAAC | 0.184 |
| GATTATGC | 0.12 |
| GATATAAA | -0.078 |
| AAGAACCT | -0.161 |
| CCCGAGCG | 0.161 |
| ACGCTCTC | 0.0984 |
| TCATATGA | -0.0405 |
| GTAATTAA | 0.19 |
| GGTATCTA | 0.0832 |
| CTAACGTA | 0.224 |
| AGAGTGAC | -0.157 |
| AAGCAGCC | -0.178 |
| GGAAACGA | 0.428 |
| AACCGGTT | 0.107 |
| AATGCCAT | -0.00527 |
| TCCGCCGA | -0.0672 |
| AGAATTAA | -0.0706 |
| AACCGGGT | -0.0866 |

| Sequence | PBM E-score |
| --- | --- |
| ACACAGAA | -0.168 |
| CAGGTCAG | -0.0218 |
| GCAGGTCA | -0.133 |
| ACTCACGG | 0.0111 |
| ACCGTGGA | -0.0649 |
| CAGTAAGA | 0.143 |
| CCGACGAA | 0.067 |
| GCCTAGGC | -0.196 |
| ACGTCTAG | 0.0326 |
| CCTGGCTC | 0.00098 |
| AGTGACCG | -0.0264 |
| AGGTGAGC | -0.0394 |
| ACCCCCTG | -0.249 |
| GCCTGACC | -0.138 |
| AGTGGTGC | 0.0342 |
| ATAGTGGG | -0.169 |
| ACCACGCG | -0.093 |
| GTCAACCA | -0.0456 |
| ATGACGAC | -0.132 |
| ACTAAACA | -0.109 |
| CGTCATTA | -0.076 |
| AACCAACA | 0.105 |
| CGTTTATC | 0.425 |
| ATCATCCC | -0.236 |
| CGCGTGGA | -0.122 |

| Sequence | PBM E-score |
| --- | --- |
| CGTGGCAG | -0.12 |
| GTTAGGGA | 0.0198 |
| ATACAAAC | 0.229 |
| GTACTTAA | 0.0488 |
| CACAGGTC | -0.224 |
| ATAGGCCG | -0.0512 |
| CACGTTCG | 0.0393 |
| CTAGGAGA | -0.302 |
| AACCGCGT | 0.183 |
| TGACTCCA | -0.303 |
| TTAATAAA | 0.204 |
| GAATTGGA | -0.0632 |
| CGTTGCCC | 0.0273 |
| CCCCTAAG | -0.258 |
| CACGTAGC | -0.0699 |
| CATGAACC | 0.0199 |
| AAGACTTC | -0.0696 |
| CCGATACG | 0.392 |
| ACTCCTGG | -0.368 |
| CCGTCAGG | -0.0615 |
| GTAATGGA | 0.0506 |
| GACCATGC | 0.1 |
| CAACGTCA | -0.107 |
| TCCAAAAA | -0.123 |
| GAGACCGA | -0.0309 |

| Sequence | PBM E-score |
| --- | --- |
| AGCCTGCC | 0.0283 |
| GGCGCCGA | -0.113 |
| AACGAACA | 0.426 |
| ACCCAACG | -0.0397 |
| ATCCATAC | 0.152 |
| GGGAGTAC | -0.134 |
| ATGAAATA | -0.045 |
| GGGTAGAA | -0.106 |
| TGAACTCA | -0.00504 |
| GCCCTGAA | 0.0191 |
| AATCGCTA | 0.187 |
| CCTAAAGC | -0.082 |
| AAACTCCC | 0.0565 |
| AAGATTAG | -0.0994 |
| GCAGGCCC | -0.219 |
| CTTCAACC | -0.104 |
| ATATGGAC | -0.102 |
| CCCATTCC | -0.0714 |
| AACTAGAA | -0.0407 |
| GTCAGGAC | -0.234 |
| CCTAACCC | -0.0258 |
| ACGATGCT | 0.291 |
| ATTTTCGA | 0.0272 |
| GATGTCCC | 0.016 |
| GCCTTAGC | -0.155 |

| Sequence | PBM E-score |
| --- | --- |
| GTGGTCTA | -0.0348 |
| AATAGAAC | -0.0513 |
| CAGTTGAC | -0.0766 |
| CCGCGCCA | -0.253 |
| GCGTTGAA | 0.175 |
| AGCGCCCG | 0.144 |
| ACACCGTC | 0.0479 |
| CTAGTAGA | -0.0582 |
| CACGGCCC | -0.152 |
| CTTGGGAA | -0.0858 |
| CGTAAATA | 0.34 |
| ATTTTCCG | 0.139 |
| ATTCGTTA | 0.346 |
| AATCTTGA | -0.228 |
| CGGACTGC | 0.0294 |
| AATGCATG | -0.0284 |
| ATTGAGCG | 0.0842 |
| GTCGATCA | -0.0634 |
| GGTTTCAA | -0.0768 |
| GCCCGGTA | -0.0969 |
| ACTTTCTC | -0.0187 |
| CGCCCGCA | 0.0163 |
| CACGCTAA | 0.0372 |
| AGTGCCTG | -0.0969 |
| AGCATGCC | -0.244 |

| Sequence | PBM E-score |
| --- | --- |
| GGAAGTCA | -0.163 |
| GGGGTCAA | 0.0907 |
| AAACGAGA | 0.469 |
| AATGCTTA | -0.168 |
| GCTGCCCC | -0.0397 |
| AGGCATGG | -0.263 |
| ACCCATAA | -0.112 |
| CAGTTAAC | 0.034 |
| GCCCCCTA | -0.231 |
| AGATCGAG | -0.128 |
| ATCTCGCG | 0.168 |
| GAGCACAC | -0.269 |
| CTTCCAAG | -0.203 |
| GTTGCATA | -0.0318 |
| GATCCCCA | -0.0179 |
| CGAATCTA | 0.0484 |
| TGGCAGAA | -0.0458 |
| CCCTGTTC | -0.152 |
| CAACTGGG | -0.268 |
| AACATAAG | 0.0537 |
| CACTCAGG | -0.181 |
| AACCCACC | -0.133 |
| GACACCGA | 0.00328 |
| AGCAGCTA | -0.0413 |
| CCAATCGA | -0.0104 |

| Sequence | PBM E-score |
| --- | --- |
| GATACTTA | -0.128 |
| AGTCTCAG | -0.262 |
| ATCTACTA | -0.0466 |
| AAGCCATG | -0.141 |
| ATGTTAAC | 0.036 |
| ACTGTTTA | 0.0701 |
| AAACTGAC | -0.0907 |
| GATTTTCC | -0.157 |
| TCGGTCCA | 0.0954 |
| GTACTGTA | 0.146 |
| ATGGCGAC | -0.149 |
| ACTAATAG | -0.0385 |
| ACGAACTA | 0.348 |
| CTCTTCAA | -0.149 |
| CTACGGTA | 0.122 |
| AAGCTCCG | -0.173 |
| AGCGAAGA | 0.113 |
| AAACACAG | -0.0663 |
| CCCGTTAC | 0.181 |
| TCGTCAAA | 0.16 |
| CCTGCTTA | 0.0328 |
| CTGCTGTA | 0.11 |
| GAGATGTA | 0.0591 |
| GAAGAAGA | -0.05 |
| AAACTGCT | -0.0967 |

| Sequence | PBM E-score |
| --- | --- |
| CGGGGTGC | -0.0984 |
| AAACTGTC | 0.00335 |
| ATCCCCTC | -0.0985 |
| CGTACGAA | 0.444 |
| CTTGTTAA | -0.196 |
| AACTGCCT | 0.018 |
| AAATATCA | -0.025 |
| CCCGATAC | 0.211 |
| GTGCCAAA | -0.00608 |
| AAGTTACC | 0.0155 |
| CCGGCCCA | -0.21 |
| CTACGAAC | 0.333 |
| ATACAGAT | -0.0412 |
| ACTAGTCA | -0.134 |
| CTCGCATA | 0.363 |
| AAGGGTTG | 0.157 |
| CCAATAGG | -0.103 |
| ATGGTCTA | -0.159 |
| CTATTAGA | -0.0645 |
